From a collection of fitness landscapes (doi:10.1126/science.1257360)
The list shows a part of the results.

B1: PhoQ; a variant is named by its letters at X, in order, P23837 (parent)
chain: MKKLLRLFFPLSLRVRFLLATAAVVLVLSLAYGMVALIGYSVSFDKTTFRLLRGESNLFYTLAKWENNKLHVELPENIDKQSPTMTLIYDENGQLLWAQRDVPWLMKMIQPDWLKSNGFHEIEADVNDTSLLLSGDHSIQQQLQEVREDDDDAEMTHSVAVNVYPATSRMPKLTIVVVDTIPVELKSSYMVWSWFIYVLSANLLLVIPLLWVAAWWSLRPIEALAKEVRELEEHNRELLNPATTRELTSLVRNLNRLLKSERERYDKYRTTLTDLTHSLKTPLXXLQXXLRSLRSEKMSVSDAEPVMLEQISRISQQIGYYLHRASMRGGTLLSRELHPVAPLLDNLTSALNKVYQRKGVNISLDISPEISFVGEQNDFVEVMGNVLDNACKYCLEFVEISARQTDEHLYIVVEDDGPGIPLSKREVIFDRGQRVDTLRPGQGVGLAVAREITEQYEGKIVAGESMLGGARMEVIFGRQHSAPKDE

Variants of: B1
Experiment: enrichment ratio after two sorts for PhoP signalling (ratio (wild type AVST 3.29)); higher = more functional
Conditions: with PhoP (E. coli)

Variant	enrichment ratio
SLRV	≤ 0.25
MFQK	≤ 0.25
TWPI	≤ 0.25
FQYF	≤ 0.25
PTTY	≤ 0.25
HQDM	≤ 0.25
KLWD	≤ 0.25
WNPI	≤ 0.25
MTYK	≤ 0.25
QREW	≤ 0.25
DHQD	≤ 0.25
QNYC	≤ 0.25
WTDL	≤ 0.25
YLMG	≤ 0.25
VLTD	≤ 0.25
HHKQ	≤ 0.25
SEFA	1.84
IHCF	≤ 0.25
SMPR	≤ 0.25
HHHD	≤ 0.25
HKLN	≤ 0.25
LLRL	≤ 0.25
NLAL	0.332
APNH	≤ 0.25
DLTG	≤ 0.25
YRWN	≤ 0.25

Variant	enrichment ratio
NTEF	≤ 0.25
FYQL	≤ 0.25
KVLY	≤ 0.25
DYFP	≤ 0.25
GGLQ	3.13
SQHR	≤ 0.25
DLPH	≤ 0.25
ALTI	6.32
GAAW	≤ 0.25
MCEG	≤ 0.25
EVLR	≤ 0.25
DKGR	≤ 0.25
SMVH	7.98
DYLH	≤ 0.25
LLSW	≤ 0.25
MMWP	≤ 0.25
SWTE	≤ 0.25
QRRL	≤ 0.25
FRVT	≤ 0.25
YSVH	≤ 0.25
NQRA	≤ 0.25
LSYH	≤ 0.25
CFVH	≤ 0.25
YDIV	≤ 0.25
HSGM	≤ 0.25
NQLD	≤ 0.25

Variant	enrichment ratio
FTKA	≤ 0.25
YMGI	≤ 0.25
VRFY	≤ 0.25
RDHF	≤ 0.25
EKDL	≤ 0.25
MFGP	≤ 0.25
VTGY	≤ 0.25
IRTF	≤ 0.25
EIVV	≤ 0.25
IDPK	≤ 0.25
KCLL	≤ 0.25
YACC	≤ 0.25
RHAY	≤ 0.25
NGGC	≤ 0.25
LEQH	≤ 0.25
RYRS	≤ 0.25
VTHV	≤ 0.25
MEFN	7.67
WRFQ	≤ 0.25
FTEK	3.82
RDMM	≤ 0.25
QHCD	≤ 0.25
LEAL	≤ 0.25
FDSC	≤ 0.25
YTCM	11.5
